The results in this text go back to PMC9911399, “Two distinct binding modes provide the RNA-binding protein RbFox with extraordinary sequence specificity”.

The chains are these.
T1: RBFOX1 RRM RbFoxmut (Fox-RRM*) (Homo sapiens, UniProt Q9NWB1 109-208, R118D;E147R;N151S;E152T)
T1 sequence: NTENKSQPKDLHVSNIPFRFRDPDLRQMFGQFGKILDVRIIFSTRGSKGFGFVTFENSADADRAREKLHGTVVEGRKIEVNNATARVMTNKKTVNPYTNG

B1: CUUGGGG (DNA:RNA)
RNA: GGGAGACCGGAAUUCAGAUUGUCCCUUGGGGUUAAAUCCCGUCGUAGCCACCA
DNA 1: CAATCTGAATTCCGGTCTCCC
DNA 2: TGGTGGCTACGACGGGATT
B2: CCCCAAG (DNA:RNA)
RNA: B1 RNA with U26C, U27C, G28C, G29A, G30A
DNA 1: CAATCTGAATTCCGGTCTCCC
DNA 2: TGGTGGCTACGACGGGATT
B3: UUGGAUC (DNA:RNA)
RNA: B1 RNA with C25U, U27G, G29A, G30U, G31C
DNA 1: CAATCTGAATTCCGGTCTCCC
DNA 2: TGGTGGCTACGACGGGATT
B4: AGGACCU (DNA:RNA)
RNA: GGGAGACCGGAAUUCAGAUUGUCCAGGACCUUUAAAUCCCGUCGUAGCCACCA
DNA 1: CAATCTGAATTCCGGTCTCCC
DNA 2: TGGTGGCTACGACGGGATT
B5: UUGCAAG (DNA:RNA)
RNA: B1 RNA with C25U, U27G, G28C, G29A, G30A
DNA 1: CAATCTGAATTCCGGTCTCCC
DNA 2: TGGTGGCTACGACGGGATT
B6: CCGAGGA (DNA:RNA)
RNA: B1 RNA with U26C, U27G, G28A, G31A
DNA 1: CAATCTGAATTCCGGTCTCCC
DNA 2: TGGTGGCTACGACGGGATT
B7: UAUCCAG (DNA:RNA)
RNA: B1 RNA with C25U, U26A, G28C, G29C, G30A
DNA 1: CAATCTGAATTCCGGTCTCCC
DNA 2: TGGTGGCTACGACGGGATT
B8: GUUUCCG (DNA:RNA)
RNA: B1 RNA with C25G, G28U, G29C, G30C
DNA 1: CAATCTGAATTCCGGTCTCCC
DNA 2: TGGTGGCTACGACGGGATT
B9: UAUAGGU (DNA:RNA)
RNA: B1 RNA with C25U, U26A, G28A, G31U
DNA 1: CAATCTGAATTCCGGTCTCCC
DNA 2: TGGTGGCTACGACGGGATT

Positions count from the first letter of the chain named. Some of the results follow.

The experiment deals with T1, RBFOX1 RRM RbFoxmut (Fox-RRM*). The experiment is described as follows: EMSA; HiTS-Eq, 1 nM pool, 10 min; buffer printed only for the single-RNA assays: 10 mM Tris pH 7.5, 150 mM NaCl, 3.4 mM EDTA, 0.001% NP-40, 30 C. The following applies: tags: His6 N-terminal (pET28a); label: 5' 32P. In short, it runs like this:
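A pool of RNA with 7 randomized nucleotides, 5′-radiolabelled and with DNA-annealed flanks, was equilibrated at 1 nM for 10 min in 50 µL with purified RbFox RRM, wild type or mutant, across increasing protein concentrations. Free RNA was separated by 8% native PAGE, excised, reverse-transcribed, barcoded by PCR and sequenced. Relative association constants were obtained from read-count changes of each RNA species versus the control reaction and normalised to the cognate motif.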
Consider B1, for which the binding signal was 0.0861 KA relative to UGCAUGU.
B2: the binding signal is 0.115 KA relative to UGCAUGU.
On to B3, for which the binding signal is 0.321 KA relative to UGCAUGU.
To B4 belongs 0.0785 KA relative to UGCAUGU; to B5, 0.103 KA relative to UGCAUGU.
For B6, the binding signal was 0.0623 KA relative to UGCAUGU.
Regarding B7, the binding signal was 0.0998 KA relative to UGCAUGU.
For B8, the binding signal is 0.118 KA relative to UGCAUGU.
Under B9 stands 0.12 KA relative to UGCAUGU.
